From the supplement of paper PMC8728848
The list shows a part of the results.

Tests used:
Assay in all cases: glycan array binding signal (z-score within array); higher = stronger binding
Conditions in all cases: glycan notation: IUPAC condensed, linker removed
[1] = molecular target: Gal(b1-4)GlcNAc(b1-3)Gal(b1-4)[Fuc(a1-3)]GlcNAc(b1-3)Gal(b1-4)[Fuc(a1-3)]GlcNAc
How it was run: (§1)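 The binding signal is a Z-score computed within each array. Data were drawn from 3228 arrays in the Consortium for Functional Glycomics database, restricted to those with a known protein sequence. Scores were averaged over arrays of the same protein sequence at different concentrations or buffers, and over linkers, and negative values can be taken as non-binding.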

[2] = molecular target: Gal(b1-4)GlcNAc(b1-3)GalNAc
How it was run: as §1

[3] = molecular target: Gal(b1-4)GlcNAc(b1-3)[Fuc(a1-3)GlcNAc(b1-6)]Gal(b1-4)Glc
How it was run: as §1

[4] = molecular target: Gal(b1-4)GlcNAc(b1-3)[Gal(b1-4)GlcNAc(b1-6)]Gal(b1-4)GlcNAc
How it was run: as §1

[5] = molecular target: Gal(b1-4)GlcNAc(b1-3)[Gal(b1-4)GlcNAc(b1-6)]GalNAc
How it was run: as §1

[6] = molecular target: Gal(b1-4)GlcNAc(b1-3)[GlcNAc(b1-6)]Gal(b1-4)GlcNAc
How it was run: as §1

[7] = molecular target: Gal(b1-4)GlcNAc(b1-6)Gal(b1-4)GlcNAc
How it was run: as §1

[8] = molecular target: Gal(b1-4)GlcNAc(b1-6)Gal(b1-4)GlcNAc(b1-6)GalNAc
How it was run: as §1

[9] = molecular target: Gal(b1-4)GlcNAc(b1-6)GalNAc
How it was run: as §1

[10] = molecular target: Gal(b1-4)GlcNAc(b1-6)[Gal(b1-3)]GalNAc
How it was run: as §1

[11] = molecular target: Gal(b1-4)GlcNAc(b1-6)[Gal(b1-4)GlcNAc(b1-3)]GalNAc
How it was run: as §1

Gal(b1-4)GlcNAc6P = molecular target: Gal(b1-4)GlcNAc6P
How it was run: as §1

Gal(b1-6)Gal = molecular target: Gal(b1-6)Gal
How it was run: as §1

Gal3S(b1-3)GalNAc = molecular target: Gal3S(b1-3)GalNAc
How it was run: as §1

Gal3S(b1-3)GlcNAc = molecular target: Gal3S(b1-3)GlcNAc
How it was run: as §1

[12] = molecular target: Gal3S(b1-3)[Fuc(a1-4)]GlcNAc
How it was run: as §1

Gal3S(b1-4)Glc = molecular target: Gal3S(b1-4)Glc
How it was run: as §1

Gal3S(b1-4)Glc6S = molecular target: Gal3S(b1-4)Glc6S
How it was run: as §1

Gal3S(b1-4)GlcNAc = molecular target: Gal3S(b1-4)GlcNAc
How it was run: as §1

Gal3S(b1-4)GlcNAc6S = molecular target: Gal3S(b1-4)GlcNAc6S
How it was run: as §1

[13] = molecular target: Gal3S(b1-4)[Fuc(a1-3)]Glc6S
How it was run: as §1

[14] = molecular target: Gal3S(b1-4)[Fuc(a1-3)]GlcNAc
How it was run: as §1

[15] = molecular target: Gal3S(b1-4)[Fuc(a1-3)]GlcNAc6S
How it was run: as §1

Gal3S4S(b1-4)GlcNAc = molecular target: Gal3S4S(b1-4)GlcNAc
How it was run: as §1

Gal3S6S(b1-4)GlcNAc = molecular target: Gal3S6S(b1-4)GlcNAc
How it was run: as §1

Gal3S6S(b1-4)GlcNAc6S = molecular target: Gal3S6S(b1-4)GlcNAc6S
How it was run: as §1

Gal4S(b1-4)GlcNAc = molecular target: Gal4S(b1-4)GlcNAc
How it was run: as §1

Gal4S6S(b1-4)GlcNAc = molecular target: Gal4S6S(b1-4)GlcNAc
How it was run: as §1

Gal6P(b1-4)GlcNAc = molecular target: Gal6P(b1-4)GlcNAc
How it was run: as §1

Gal6S(b1-3)GlcNAc = molecular target: Gal6S(b1-3)GlcNAc
How it was run: as §1

Gal6S(b1-3)GlcNAc6S = molecular target: Gal6S(b1-3)GlcNAc6S
How it was run: as §1

Gal6S(b1-4)Glc = molecular target: Gal6S(b1-4)Glc
How it was run: as §1

Gal6S(b1-4)Glc6S = molecular target: Gal6S(b1-4)Glc6S
How it was run: as §1

Gal6S(b1-4)GlcNAc = molecular target: Gal6S(b1-4)GlcNAc
How it was run: as §1

Gal6S(b1-4)GlcNAc6S = molecular target: Gal6S(b1-4)GlcNAc6S
How it was run: as §1

GalNAc(a1-3)Gal = molecular target: GalNAc(a1-3)Gal
How it was run: as §1

GalNAc(a1-3)GalNAc = molecular target: GalNAc(a1-3)GalNAc
How it was run: as §1

[16] = molecular target: GalNAc(a1-3)GalNAc(b1-3)Gal(a1-4)Gal(b1-4)Glc
How it was run: as §1

B1: CSA (Cytisus scoparius), P29257 (protein)
chain: SEELSFSFTKFKTDQKNLILQRDALITPTGKLQLTTVENGKPAAYSLGRALYSTPIHIWDKSTGDEASFATFFSFVISDAPNPSTAATDGLAFFLAPADTQPQSAGGYLGLFEKDSSYNSSNQIVAVEFDTYYNSAWDPQTNPHIGIDVNTIKSKKVSSWGFKNGNVATVLITYQPSSKSLVASLVYPSGQTSDKTSYIISANVDLKATVPEWVRIGFSATTGQTDNYIETHDILSWSFKSKLPATKN
B1 was tested, and the “glycan array binding signal (z-score)” value [1] was -0.174, the “glycan array binding signal (z-score)” value [2] was -0.162 and the “glycan array binding signal (z-score)” value [3] was -0.13. For the same binder, the “glycan array binding signal (z-score)” value [4] was -0.11, the “glycan array binding signal (z-score)” value [5] was -0.003 and the “glycan array binding signal (z-score)” value [6] was -0.229. For the same binder, the “glycan array binding signal (z-score)” value [7] was -0.15, the “glycan array binding signal (z-score)” value [8] was -0.078 and the “glycan array binding signal (z-score)” value [9] was -0.194. The “glycan array binding signal (z-score)” value [10] was -0.16, the “glycan array binding signal (z-score)” value [11] was -0.144 and the “glycan array binding signal (z-score)” value (Gal(b1-4)GlcNAc6P) was -0.196. For the same binder, the “glycan array binding signal (z-score)” value (Gal(b1-6)Gal) was -0.186, the “glycan array binding signal (z-score)” value (Gal3S(b1-3)GalNAc) was -0.106 and the “glycan array binding signal (z-score)” value (Gal3S(b1-3)GlcNAc) was -0.188. For the same binder, the “glycan array binding signal (z-score)” value [12] was -0.2, the “glycan array binding signal (z-score)” value (Gal3S(b1-4)Glc) was -0.157 and the “glycan array binding signal (z-score)” value (Gal3S(b1-4)Glc6S) was -0.166. The “glycan array binding signal (z-score)” value (Gal3S(b1-4)GlcNAc) was -0.129, the “glycan array binding signal (z-score)” value (Gal3S(b1-4)GlcNAc6S) was -0.149 and the “glycan array binding signal (z-score)” value [13] was -0.102. The “glycan array binding signal (z-score)” value [14] was -0.211, the “glycan array binding signal (z-score)” value [15] was -0.184 and the “glycan array binding signal (z-score)” value (Gal3S4S(b1-4)GlcNAc) was -0.125. For the same binder, the “glycan array binding signal (z-score)” value (Gal3S6S(b1-4)GlcNAc) was -0.186, the “glycan array binding signal (z-score)” value (Gal3S6S(b1-4)GlcNAc6S) was -0.215 and the “glycan array binding signal (z-score)” value (Gal4S(b1-4)GlcNAc) was -0.179. The “glycan array binding signal (z-score)” value (Gal4S6S(b1-4)GlcNAc) was -0.156, the “glycan array binding signal (z-score)” value (Gal6P(b1-4)GlcNAc) was -0.289 and the “glycan array binding signal (z-score)” value (Gal6S(b1-3)GlcNAc) was -0.246. The “glycan array binding signal (z-score)” value (Gal6S(b1-3)GlcNAc6S) was -0.233, the “glycan array binding signal (z-score)” value (Gal6S(b1-4)Glc) was -0.15 and the “glycan array binding signal (z-score)” value (Gal6S(b1-4)Glc6S) was -0.199. For the same binder, the “glycan array binding signal (z-score)” value (Gal6S(b1-4)GlcNAc) was -0.203, the “glycan array binding signal (z-score)” value (Gal6S(b1-4)GlcNAc6S) was -0.149 and the “glycan array binding signal (z-score)” value (GalNAc(a1-3)Gal) was 3.51. The “glycan array binding signal (z-score)” value (GalNAc(a1-3)GalNAc) was -0.083 and the “glycan array binding signal (z-score)” value [16] was -0.242.
